Where “and” joins values, the source holds several entries; their conditions need not be identical. Equal values may be shown once. The campaign covered roughly 150,000 compounds. About 540 (0.36%) showed an effect of 50% or more. The list shows a part of the results.
System: Plasmodium falciparum
Assay: Primary screen in NF54 nanoGlo assay, in single point, at 2uM, 72h; a lower Z score goes with more inhibition
Type: functional, Erythrocyte
Details: timepoint 72 hour

Row | SMILES | % Inhibition [%] | Z score | % Inhibition (2 µM)
1 | O=C1c2ccccc2C(=O)N1CC(=O)n1nnc2ccccc21 | -4 | 0.42 | –
2 | CN(C)c1ccc(C(=O)NCCn2c(-c3ccncc3)nc3ccccc32)cc1 | 1 | -0.17 | –
3 | Cc1cc(=O)[nH]c(N2CCC(NC(=O)c3ccc(F)c(Cl)c3)CC2)n1 | -9 | 1.56 | –
4 | Cc1sc2ccccc2[n+]1Cc1ccccc1 | -15 | 1.77 | –
5 | Cc1ccsc1C(=O)Nc1cccn2cnnc12 | -1 | 0.15 | –
6 | Cc1ccc(-c2nc(-c3ccc4nnn(C)c4c3)no2)c(C)c1 | -8 | 1.34 | –
7 | Cc1nc2ccccn2c1CC(=O)NCCc1nncn1C | -12 | 1.62 | –
8 | COc1c(F)ccc(CN2CCNC(=O)C23CCCC3)c1F | 0 | -0.08 | –
9 | COCCn1c(-c2ccnn2C)nnc1N1CCN2CCOC[C@@H]2C1 | 3 | -0.49 | –
10 | Cc1ccc(NCC2CCN(C(C)C(=O)Nc3cc(C)no3)C2)nc1 (centres undefined) | 1 | -0.17 | –
11 | CCCN(C)C(=O)c1nc(C(F)(F)F)ccc1Br | 9 | -1.1 | –
12 | CCn1c(CN2CCC[C@H]2c2cccs2)nc2cc(S(=O)(=O)N(C)C)ccc21 | -1 | 0.16 | –
13 | CN(Cc1ccccc1)[C@H]1CCCN(C(=O)CCCc2ccccc2)C1 | -17 | 1.45 | –
14 | O=C(Cc1ccc(-c2ccccc2)cc1)Nc1ccc2[nH]c(=O)[nH]c2c1 | -2 | 0.29 | –
15 | NC(=O)c1c(NC(=O)c2ccc(S(=O)(=O)N3CCOCC3)cc2)sc2c1CCC2 | -13 | 1.12 | –
16 | CNC(=O)Cn1cc(NC2CC(C)(C)CC2C)cn1 (centres undefined) | -7 | 0.74 | –
17 | CCN1CCN(C(=O)c2nn(-c3ccccc3)c3c(=O)n(C)cnc23)CC1 | -13 | 1.21 | –
18 | CC[C@H](C)[C@H](NC(=O)c1c(C)nn(C2CCS(=O)(=O)C2)c1C)c1nc2ccccc2[nH]1 (some centres undefined) | -8 | 1.14 | –
19 | Cc1ccc(CN(C)C(=O)[C@@H]2CCN(C(=O)OC(C)(C)C)C2)o1 | -4 | 0.41 | –
20 | CN(CC1CCC(NC(=O)C2CC3CCC2O3)CC1)C(=O)C1CC2CCC1O2 (centres undefined) | -5 | 0.83 | –
21 | CCCC(NC(=O)CC1CCCCO1)c1nnn[nH]1 (centres undefined) | -10 | 0.98 | –
22 | CC(C)COc1cncc(NCCN2C(=O)Cc3ccccc32)n1 | -10 | 1.48 | –

Row | SMILES | % Inhibition [%] | Z score | % Inhibition (2 µM)
23 | COCCn1nc2n(c1=O)CCC1(CC2)CCN(C(=O)c2ccc(F)cc2)CC1 | 0 | -0.01 | –
24 | CC(C)C(=O)NCc1cccnc1-c1ccccc1 | -8 | 1.37 | –
25 | Fc1ccc(-n2nc(-c3ccco3)nc2[C@H]2CC23CCNCC3)cc1F | -7 | 1.13 | –
26 | Oc1nc(N2CCc3ccccc32)nc2c1CCCC2 | – | – | -1% and -2%
27 | CCc1nn(C)cc1CNC[C@H]1CCCc2ccc(C(=O)O)cc21 | -1 | 0.09 | –
28 | CC(C)CC1(CNC(=O)CS(=O)(=O)C(C)C)CCCC1 | -5 | 0.58 | –
29 | O=C(NCCc1ccccc1)N1CC[C@H]2[C@H](CCC(=O)N2CCCO)C1 | 4 | -0.84 | –
30 | O=C(c1cccnc1)N1C[C@H]2CC[C@@H](C1)N(C(=O)Cc1ccccc1)C2 | 3 | -0.6 | –
31 | Cc1nc(N2CCC(NCCN3CCCOC3=O)CC2)c2ccsc2n1 | -9 | 1.23 | –
32 | CCc1ccccc1CN=C(NC)NC | -17 | 1.69 | –
33 | COc1ccc(S(=O)(=O)NCc2cccnc2)cc1N(C)S(=O)(=O)c1ccc(Cl)cc1 | -5 | 0.7 | –
34 | Cc1ncsc1NC(=O)CC(F)(F)F | -1 | 0.18 | –
35 | CC1=CCN(c2cc(Cl)ccc2C#N)CC1 | 2 | -0.36 | –
36 | Cc1cnc(=O)n(C[C@H]2CCCC2(F)F)c1 | -16 | 1.88 | –
37 | O=C(NCCCN1CCOCC1)c1ccc2c(c1)nc1n2CCN(C2CCCCC2)C1=O | -19 | 2.44 | –
38 | CCc1ccc(-c2cn(Cc3ccc4[nH]c(=O)[nH]c4c3)nn2)nc1 | -14 | 2.58 | –
39 | Cc1nc(N2CCCC2)c2c(C(=O)Nc3ccccc3F)c(C)oc2n1 | -9 | 1.4 | –
40 | Nc1nc2n(c1C(=O)c1ccc3c(c1)CCCC3)CCC2 | 30 | -3.38 | –
41 | COc1cc([C@H](C(=O)Nc2ccc3c(c2)OCO3)N(Cc2cccnc2)C(=O)Cn2nnc3ccccc32)cc(OC)c1OC | 28 | -3.12 | –
42 | CC(C)(C)C(NS(C)(=O)=O)C(=O)NC1C2CCCOC2C1(C)C (centres undefined) | -9 | 1.75 | –
43 | CC1(CS(=O)(=O)Cc2nnc(C3CC3)s2)CCCCC1 | 1 | -0.13 | –
44 | O=C(c1cccnc1-c1ccncc1F)N1CCCC1 | -4 | 0.53 | –

Row | SMILES | % Inhibition [%] | Z score | % Inhibition (2 µM)
45 | O=C(c1cccc(Cl)c1)N1CCc2ncncc2C1 | -14 | 1.92 | –
46 | Cc1nn(-c2ccccc2)c(Oc2ccccc2)c1CN(Cc1ccco1)C(=O)c1ccc(Cl)cc1 | -3 | 0.25 | –
47 | c1cncc(-c2nc(-c3ccnc(N4CCCC4)c3)no2)c1 | 1 | -0.11 | –
48 | O=C(N[C@@H](c1ccccc1)c1nc2ccccc2[nH]1)c1ccncc1 | -13 | 1.63 | –
49 | CCC1(CC)CCN(C[C@]2(O)CCCN(CCc3ccccc3)C2=O)C1 | -7 | 1.3 | –
50 | CCc1sc(C(=O)N2CCC[C@@H]2C(=O)O)cc1C | -14 | 1.91 | –
51 | O=C(Cc1cccc(F)c1F)N1C[C@H]2C[C@H](C1)[C@@H]1CCCC(=O)N1C2 | -14 | 2.02 | –
52 | CCOc1ccc(CNc2nc(NCc3ccc(OCC)cc3)n(C(=O)COc3ccc(Cl)cc3)n2)cc1 | 9 | -1.1 | –
53 | COCCN(Cc1cc(C)no1)CC(C)C | -8 | 1.18 | –
54 | CC(C)C(=O)N1CCC([C@@H]2CN(Cc3ccncc3F)C[C@H]2CO)CC1 | -6 | 0.86 | –
55 | CC(C)[C@@H](C(=O)N1Cc2cncnc2C1)c1ccc(F)cc1 | 0 | -0.03 | –
56 | CC(C)c1ccc(C(=O)N[C@@H](CO)c2ccnn2C)s1 | -13 | 1.72 | –
57 | COCC1(N(C)C(=O)[C@H]2CCC(=O)N(c3cnn(C)c3)C2)CCC1 | -8 | 1.04 | –
58 | COCCC(=O)N[C@@H](C)c1cnn(-c2ccc(OC)cc2)c1 | -4 | 0.76 | –
59 | Cc1nsc(N2CC3OCCN(Cc4ccccc4)C3C2)n1 (centres undefined) | -9 | 1.14 | –
60 | Cc1cc(Br)ccc1S(=O)(=O)N[C@@H](C)CO | 0 | -0.03 | –
61 | CC(C)(C(=O)N1CCN([C@H]2CCCCNC2=O)CC1)c1ccccc1 | 1 | -0.19 | –
62 | Cc1ccc(-c2noc(C3CC34CCOC4)n2)cc1N1CCCC1 (centres undefined) | 2 | -0.26 | –
63 | CCc1cccc(N2C(=O)c3cc(-c4cccs4)nn3C[C@@]2(C)C(=O)NCc2ccc(C)cc2)c1 | -10 | 1.51 | –
64 | c1cc(CN2CC[C@]3(CCOC3)C2)c2cc[nH]c2c1 | -5 | 0.48 | –
65 | O=C(NCCn1ccnc1-c1ncccn1)NCc1cccs1 | 9 | -1.1 | –
66 | CCC(C)N1C(=O)C(Cc2ccccc2)NC12CCN(C(=O)c1ccc(C)cc1)CC2 (centres undefined) | -6 | 1 | –

Row | SMILES | % Inhibition [%] | Z score | % Inhibition (2 µM)
67 | Cc1nnc2n1C[C@@H](Nc1cnc3ccccc3n1)CC2 | -5 | 0.68 | –
68 | O=C(Nc1cccs1)N1CC[C@H](c2ccc3c(c2)OCO3)C1 | -1 | 0.21 | –
69 | COc1ccc(N[C@H]2CCCN(C(=O)c3ccc4ncccc4c3)C2)cc1OC | 5 | -0.56 | –
70 | Cc1ccc(O[C@H]2CCCN(C(=O)c3cnc4ccccc4n3)C2)nn1 | -13 | 2.14 | –
71 | CC(C)=CCN1CCN(C(=O)c2cnccc2C)[C@H]2CS(=O)(=O)C[C@H]21 | -6 | 0.79 | –
72 | c1cncc(COC2CCN(Cc3ccc(Cn4cccn4)cc3)CC2)c1 | -3 | 0.59 | –
73 | Cc1ccc2c(c1)CN(Cc1ccc(C)s1)C[C@H](C)O2 | 6 | -0.79 | –
74 | O=C(CN(Cc1ccccn1)C1CC1)N1CCCCCC1 | -1 | 0.07 | –
75 | CCC(C(N)=O)N(C)CC1CCCCC1O (centres undefined) | -6 | 0.82 | –
76 | C[C@@H](CCc1cccn1C)NC(=O)Nc1nnc2ccccn12 | 2 | -0.19 | –
77 | Cc1cc(C)cc(CN2CCN(C(=O)c3ccc(C)c(F)c3F)CC2=O)c1 | -14 | 2.77 | –
78 | CCC[C@@](C)(CO)NC(=O)c1ccc(F)cc1C | -2 | 0.47 | –
79 | CC(C)c1nnc([C@H](C)NC(=O)c2ccn(C(F)F)n2)o1 | 1 | -0.14 | –
80 | CC1(C)CC(NC(=O)Cn2c(COc3ccccc3)nc3ccccc32)CC(C)(C)N1 | -2 | 0.3 | –
81 | Cn1cccc1-c1noc([C@H]2CCN(C(=O)c3nccc4ccccc34)C2)n1 | -15 | 1.92 | –
82 | CC(CN(C)C(=O)OC(C)(C)C)C(=O)N1CC(NC2CCOC2)C1 (centres undefined) | 12 | -1.69 | –
83 | CC[C@@H](C(=O)O)N1CCC(N2CCc3ccccc32)CC1 | -4 | 0.62 | –
84 | Cc1c(C(=O)N[C@@H]2CCC[C@@H]2n2ccnc2)ccn1Cc1ccccc1 | -2 | 0.45 | –
85 | O=C(O)c1c2c(nc3ccc(S(=O)(=O)N4CCC(C(=O)N[C@H]5CCCc6ccccc65)CC4)cc13)CCCC2 | -8 | 1.23 | –

Source: ChEMBL document CHEMBL4888484, “Replenishing the malaria drug discovery pipeline: Screening and hit evaluation of the MMV Hit Generation Library 1 (HGL1) against asexual blood stage Plasmodium falciparum ,using a nano luciferase reporter read-out” (2022)
